Experimental findings from PubChem BioAssay AID1508624 (National Center for Advancing Translational Sciences (NCATS), 2021) are described below.

About 120 (0.25%) of roughly 48,000 compounds were called active. Another 4% or so got no clear call; they are omitted. Calls come from the whole dose curve; as a rule, active = well fitted activation curve with a large enough effect; inconclusive = small, poorly fitted or top-dose-only effect, or another doubt; inactive = no such curve, though single readings can be large or run the other way. This is one part of the list.
Potency is the fitted concentration of half-maximal effect.

The assay can be described thus: Primary qHTS for Identification of Small Molecule Activators of Huntingtin-Antisense Promoter Activity. Note: nearly all actives have a fitted effect of over 55% in size. The note with it: HEK293 HTT-AS promoter firefly luciferase reporter (activity 0% = vehicle and -100% = no light), 24 h; series mostly up to 57.5 µM; activity change, positive = activation: at the top concentration. A digest of the protocol:
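HEK293 cells carrying firefly luciferase reporters were seeded at 2,500 per well in Opti-MEM and cultured for 24 h. They were then treated with compounds at up to 57.5 uM final for 24 h at 37 degrees C before Dual-Glo luminescence readout.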
In general terms: In qHTS, concentration-response curves come from the screen itself.
In the case of `Cc1nncn1-c1ccc(C(=O)Nc2cc(F)ccc2F)cc1`, the “activity change, positive = activation” value was inactive: 1.49%. For `Cc1ccc(CCNC(=O)CCS(=O)(=O)c2cc3c(cc2C)NC(=O)CO3)cc1`, the “activity change, positive = activation” value was inactive: -16%. The same measure, in the same setting: to `COc1ccc(C)cc1NS(=O)(=O)c1cc2c3c(c1)CC(=O)N3CCC2` belongs inactive: 0.932%. Turning to `COc1ccc(NC(=O)CSc2nc3nc(C)c(Cc4ccccc4Cl)c(C)n3n2)cc1OC`, the “activity change, positive = activation” value is inactive: -13.3%. Still for that read-out and setting: to `CCn1c(=N)c(C(=O)NC2CCCCC2)cc2c(=O)n3cc(C)ccc3nc21` belongs inactive: -5.59%; to `COc1ccc(-n2c(=O)c3ccccc3n(CC(=O)NCCc3ccc(OC)c(OC)c3)c2=O)cc1`, inactive: -11.4%. Consider `Cc1ccccc1CCNC(=O)c1cc2cc(S(=O)(=O)N3CCCCC3)ccc2n1C`, for which the “activity change, positive = activation” value is inactive: -36.2%.

`COc1ccc(NC(=O)c2cc3c(=O)n(Cc4cccnc4)ccc3nc2C)cc1OC`: the “activity change, positive = activation” value was inactive: -6.42%. The same measure, in the same setting: under `COc1ccc(Cl)cc1NC(=O)CCCN1C(=O)C(c2ccccc2)Oc2cccnc21` (configuration not stated) stands inactive: -30.4%; under `COc1cc2c(cc1OC)C(COc1cc(C)cc(C)c1)N(C(=O)COc1ccccc1)CC2` (configuration not stated), inactive: -28.7%. For `CCOc1ccc(NC(=O)C2CCCN(S(=O)(=O)c3ccc4[nH]c(=O)ccc4c3)C2)cc1` (configuration not stated), the “activity change, positive = activation” value is inactive: -22.1%. `Cc1ccc(NC(=O)C(=O)c2cc(C)n(-c3ccc(F)cc3)c2C)cc1C`: the “activity change, positive = activation” value is inactive: 1.4%. The same measure, in the same setting: under `COc1cccc(-n2ccn(CC(=O)c3ccc(F)cc3)c(=O)c2=O)c1` stands inactive: -3.28%; under `COc1ccccc1N1CCN(C(=O)CSc2nc3ccccc3nc2Cc2ccccc2)CC1`, inactive: -8.96%; under `O=C(O)C=Cc1ccc(Cn2ccnc2)cc1`, inactive: -1.66%. On to `COc1ccc(CNC(=O)c2cc(Nc3ccc(C)cc3C)nc3ccccc23)cc1`, for which the “activity change, positive = activation” value was inactive: -4.76%. Turning to `CCCN(CCC)S(=O)(=O)c1ccc2c(c1)N(CC(=O)NC(C)c1ccccc1)C(=O)CS2` (configuration not stated), the “activity change, positive = activation” value is inactive: -30.9%.

Turning to `CCN(c1cccc(C)c1)S(=O)(=O)c1nnc(NC(=O)c2ccccc2Cl)s1`, the “activity change, positive = activation” value is inactive: -35.1%. Take `COc1ccccc1N1CCN(C(=O)c2cc(-c3ccc(F)cc3)on2)CC1`: the “activity change, positive = activation” value is inactive: -11.3%.

`CC(=O)c1ccc(N2C(=O)N(CC(=O)c3ccc(C)cc3)c3ccccc3S2(=O)=O)cc1`: the “activity change, positive = activation” value was inactive: -25.1%. Regarding `Cc1ccc2nc(CNC(=O)c3ccccc3)[nH]c2c1`, the Potency was active: 4.47 µM. On to `Cc1cccc(-c2noc(CSc3nc(-c4ccc(F)cc4)cc(=O)[nH]3)n2)c1`, for which the “activity change, positive = activation” value is inactive: 4.62%. Consider `COc1ccc(CCNC(=O)C(=O)NCC(c2ccc3c(c2)OCO3)N2CCOCC2)cc1OC` (configuration not stated), for which the “activity change, positive = activation” value is inactive: -10.2%.

Consider `Cc1cccn2c(=O)c(C(=O)NCCc3ccccc3)c(O)nc12`, for which the “activity change, positive = activation” value is inactive: 23.8%.

In the case of `N#Cc1cc(NC(=O)Nc2nnc(-c3ccncc3)s2)ccc1-c1cn[nH]c1`, the “activity change, positive = activation” value is inactive: -9.47%. With `CCOc1ccc(NC(=O)c2oc3ccccc3c2NC(=O)c2c(F)cccc2F)cc1`, the “activity change, positive = activation” value is inactive: -2.61%. On to `O=C(Nc1nnc(S(=O)(=O)N2CCCc3ccccc32)s1)c1ccccc1`, for which the “activity change, positive = activation” value is inactive: -21.2%. As to `COC(=O)c1cnn2c(C)c(Cc3c(C)cc(C)cc3C)c(C)nc12`, the “activity change, positive = activation” value is inactive: -14.6%. Take `COc1ccc(NC(=O)CCn2c(=O)c3cccn3c3ccccc32)c(OC)c1`: the “activity change, positive = activation” value is inactive: -8.23%. As for `CCC1CN(C(=O)Nc2cccc3c2CCCC3)c2ccccc2O1` (configuration not stated), the “activity change, positive = activation” value was inactive: -34.1%. Turning to `Cc1ccc2c(=O)cc(C(=O)Nc3ccc(S(=O)(=O)N(C)Cc4ccccc4)cc3)oc2c1`, the “activity change, positive = activation” value is inactive: -22.5%. In the case of `CCN(CC)S(=O)(=O)c1ccc2c(c1)c(=O)c(C(=O)N1CCN(c3cccc(C)c3)C(C)C1)cn2C` (configuration not stated), the “activity change, positive = activation” value is inactive: -0.221%. Take `Cc1ccc(CNC(=O)CN(c2ccc(C)cc2)S(=O)(=O)c2c(C)nn(C)c2C)cc1`: the “activity change, positive = activation” value was inactive: -17%.

Regarding `COc1ccccc1-c1cc2nc(C)c(CCC(=O)NCc3cccc(Cl)c3)c(C)n2n1`, the “activity change, positive = activation” value is inactive: -80%. Turning to `CC(=O)c1ccc(NC(=O)CN(C)S(=O)(=O)c2cccc3nsnc23)cc1`, the “activity change, positive = activation” value was inactive: 19.3%. For `CCCCn1c(C(C)NC(=O)c2ccccc2)nc2ccccc21` (configuration not stated), the “activity change, positive = activation” value was inactive: -23.5%. Same read-out and setting: to `COc1ccc(N2CC(NC(=O)C3CC3)CC2=O)cc1OC` (configuration not stated) belongs inactive: 4.08%; to `CCC(Sc1nc2ccccc2c2nc(-c3ccccc3)nn12)C(=O)Nc1cccc(OC)c1` (configuration not stated), inactive: -5.85%. For `COC(=O)c1c(NC(=O)CS(=O)(=O)c2ccc(C)cc2)sc2c1CCCC2`, the “activity change, positive = activation” value was inactive: -21.7%. Same read-out and setting: to `Cc1ccc2oc(=O)c3cnn(CC(=O)N4CCN(c5ccccc5)CC4)c3c2c1` belongs inactive: -11%; to `Cc1c(Cl)cccc1NC(=O)CCN1C(=O)c2ccccc2Sc2ncccc21`, inactive: -22.3%; to `Cc1cc(NC(=O)CCNS(=O)(=O)c2ccc3c(c2)oc(=O)n3C)ccc1Br`, inactive: -17.7%. Same read-out and setting: under `CCN(C(=O)Cn1nnc2sc(-c3ccccc3)cc2c1=O)c1cccc(C)c1` stands inactive: -17%; under `O=C(Nc1cccc(Cl)c1)c1ccc(F)c(S(=O)(=O)N2CCC3(CC2)OCCO3)c1`, inactive: -22.9%; under `CCC(C)NC(=O)CSc1nc2n[nH]c(C)c2c(=N)n1-c1ccc(C)c(Cl)c1` (configuration not stated), inactive: -25.4%.

With `O=C(Nc1ccc(F)cc1F)c1cc2nc(-c3ccco3)cc(C(F)(F)Cl)n2n1`, the “activity change, positive = activation” value was inactive: 0.474%. Same read-out and setting: under `CCc1nn(CC(=O)NCc2ccccc2Cl)c(=O)c2cccn12` stands inactive: -0.941%; under `COc1ccc(CCNC(=O)c2ccc3c(c2)N(Cc2ccc(F)cc2)CCS3)cc1OC`, inactive: -30.9%; under `Cc1nc(-c2ccc(S(=O)(=O)Nc3ccc(C)c(N(C)C)c3)cc2)co1`, inactive: -47.4%.

Regarding `Cc1cc(C)cc(NC(=O)c2cccc3c2C(=O)N(C2CCCCC2)C3)c1`, the “activity change, positive = activation” value was inactive: -2.65%.

As for `COc1ccccc1-n1c(-c2ccc(C)cc2)cn2c3c(=O)n(C)c(=O)n(C)c3nc12`, the “activity change, positive = activation” value was inactive: -17.2%. As to `Cc1nc(SCC(=O)Nc2ccccc2F)[nH]c(=O)c1Cc1ccccc1`, the “activity change, positive = activation” value is inactive: -8.05%. For the compound `O=S(=O)(c1ccccc1)c1nc(-c2cccs2)oc1SCc1ccc(F)cc1`, the “activity change, positive = activation” value is inactive: 11.1%. The same measure, in the same setting: to `COc1ccc(S(=O)(=O)c2cc(NS(=O)(=O)c3ccc(Cl)cc3)c(C)c(C)c2O)cc1` belongs inactive: -24.2%. The same measure, in the same setting: to `Cc1c(C(=O)Nc2ccc(F)cc2)sc2nc[nH]c(=O)c12` belongs inactive: 19.9%.

For the compound `CCc1ccccc1NC(=O)c1cc(S(=O)(=O)N2CCCc3ccccc32)ccc1F`, the “activity change, positive = activation” value was inactive: -33.9%.

As to `CC(C)CCn1c(=O)c2sccc2n2c(CCCC(=O)NCc3ccc(F)cc3)nnc12`, the “activity change, positive = activation” value was inactive: -10.9%. On the same count and under the same terms, to `Fc1cccc(-n2ncc3c2ncn2nc(-c4ccccc4Cl)nc32)c1` belongs inactive: 1.67%.

As for `O=C(Cn1c(=O)c2cccn2c2ccc(F)cc21)N1CCN(c2ccc(F)cc2)CC1`, the “activity change, positive = activation” value is inactive: -20.3%. As for `Cc1cccc(N2CCN(C(=O)CCn3c(=O)c4cccn4c4cccnc43)CC2)c1C`, the “activity change, positive = activation” value was inactive: -16.7%. Consider `O=C(COc1ccccc1)Nc1cccc(-c2cn3cccnc3n2)c1`, for which the “activity change, positive = activation” value was inactive: 14.5%. Turning to `CCOc1ccc(N(C)C(CNS(=O)(=O)c2ccccc2)c2ccccc2)cc1` (configuration not stated), the “activity change, positive = activation” value was inactive: -20.6%.
